# Source: US11666578B2, “Small molecule inhibitors of CDK12/CDK13” (The Scripps Research Institute, priority 2018, dated 2023)
# Assay: Mouse PK
# Assay type: in vivo
# Details: PO 20 mg/kg
smiles,measurement,value
"Cn1cc(-n2cnc3c(NCc4nc5cc(Cl)c(Cl)cc5[nH]4)nc(N4CCOCC4)nc32)cn1 [Compound 5, N-((5,6-dichloro-1H-benzo[d]imidazol-2-yl)methyl)-9-(1-methyl-1H-pyrazol-4-yl)-2-morpholino-9H-purin-6-amine]",AUClast,697216 min*ng/mL and 23 μM.hr [columns of one line]

# Some entries of the source have several records that differ or are many. This list holds those alone. An entry can have further records. The values listed for one entry seem to repeat one measurement (runs, samples, wells or individuals).
